Experimental data from patent publication US10299477B2 (priority 2015, dated 2019).

Tests used:
[1] = test system: Magnaporthe grisea; format: in vivo; conditions: 250 ppm spray, preventive; control value class
[2] = test system: Phytophthora infestans; format: in vivo; conditions: 250 ppm spray (2.5 ml/pot), preventive; 5-10 days after inoculation; control value class
[3] = test system: Colletotrichum orbiculare; conditions: 250 ppm spray (2.5 ml/pot), preventive; 6-10 days after inoculation; control value class

SMILES	Test A control value (blast on rice) [1]	Test F control value (late blight on tomato) [2]	Test H control value (anthracnose on cucumber) [3]
COc1ccc(Cl)c(-c2ccc(=O)n(CC(F)F)c2-c2c(F)cccc2F)c1 [Compound 194, 5-(2-chloro-5-methoxyphenyl)-1-(2,2-difluoroethyl)-6-(2,6-difluorophenyl)pyridine-2(1H)-one]	H (H shows more than 50% of control values)	L (L shows 50% or less of control values)	H (H shows more than 50% of control values)
CCn1c(-c2c(F)cccc2F)c(-c2cc(OCCOC)ccc2Cl)cc(Cl)c1=O [Compound 195]	H (H shows more than 50% of control values)	L (L shows 50% or less of control values)	H (H shows more than 50% of control values)
CCn1c(-c2c(F)cccc2F)c(-c2cc(OCCOC)ccc2Cl)cc(Br)c1=O [Compound 196]	H (H shows more than 50% of control values)	L (L shows 50% or less of control values)	H (H shows more than 50% of control values)
COc1ccc(Cl)c(-c2cc(Cl)c(=O)n(CC(F)F)c2-c2c(F)cccc2F)c1 [Compound 197]	H (H shows more than 50% of control values)	L (L shows 50% or less of control values)	H (H shows more than 50% of control values)
COc1ccc(Cl)c(-c2cc(Br)c(=O)n(CC(F)F)c2-c2c(F)cccc2F)c1 [Compound 198, 3-bromo-5-(2-chloro-5-methoxyphenyl)-1-(2,2-difluoroethyl)-6-(2,6-difluorophenyl)pyridine-2(1H)-one]	H (H shows more than 50% of control values)	L (L shows 50% or less of control values)	H (H shows more than 50% of control values)
CCn1c(-c2c(F)cc(Br)cc2F)c(-c2cc(OC)cc(OC)c2)ccc1=O [Compound 199]	H (H shows more than 50% of control values)	L (L shows 50% or less of control values)	H (H shows more than 50% of control values)
CCn1c(-c2c(F)cc(Br)cc2F)c(-c2cc(OC)cc(OC)c2Br)ccc1=O [Compound 200]	H (H shows more than 50% of control values)	H (H shows more than 50% of control values)	H (H shows more than 50% of control values)
CCn1c(-c2c(F)cc(Br)cc2F)c(-c2cc(OC)cc(OC)c2Cl)ccc1=O [Compound 201]	H (H shows more than 50% of control values)	H (H shows more than 50% of control values)	H (H shows more than 50% of control values)
CCn1c(-c2c(F)cc(Br)cc2F)c(-c2cc(OC)c(Cl)c(OC)c2)ccc1=O [Compound 202]	H (H shows more than 50% of control values)	L (L shows 50% or less of control values)	H (H shows more than 50% of control values)
COc1cc(OC)cc(-c2ccc(=O)n(C)c2-c2c(F)cc(Br)cc2F)c1 [Compound 203]	H (H shows more than 50% of control values)	L (L shows 50% or less of control values)	H (H shows more than 50% of control values)
COc1cc(OC)c(Br)c(-c2ccc(=O)n(C)c2-c2c(F)cc(Br)cc2F)c1 [Compound 204]	H (H shows more than 50% of control values)	H (H shows more than 50% of control values)	H (H shows more than 50% of control values)
COc1cc(OC)c(Cl)c(-c2ccc(=O)n(C)c2-c2c(F)cc(Br)cc2F)c1 [Compound 205]	H (H shows more than 50% of control values)	H (H shows more than 50% of control values)	H (H shows more than 50% of control values)
COc1cc(-c2ccc(=O)n(C)c2-c2c(F)cc(Br)cc2F)cc(OC)c1Cl [Compound 206]	H (H shows more than 50% of control values)	L (L shows 50% or less of control values)	H (H shows more than 50% of control values)
CCN1C(=O)CCC(c2cccc(C)c2)=C1c1c(F)cccc1F [Compound 207]	H (H shows more than 50% of control values)	L (L shows 50% or less of control values)	L (L shows 50% or less of control values)
CCN1C(=O)CCC(c2cccc(OC(F)(F)F)c2)=C1c1c(F)cccc1F [Compound 208]	H (H shows more than 50% of control values)	L (L shows 50% or less of control values)	L (L shows 50% or less of control values)
CCn1c(-c2c(F)cccc2F)c(-c2ccccc2SC)ccc1=O [Compound 209]	H (H shows more than 50% of control values)	L (L shows 50% or less of control values)	L (L shows 50% or less of control values)
CCn1c(-c2c(F)cccc2F)c(-c2ccccc2SCCl)cc(Cl)c1=O [Compound 210]	H (H shows more than 50% of control values)	L (L shows 50% or less of control values)	L (L shows 50% or less of control values)
CCn1c(-c2c(F)cccc2F)c(-c2cc(OCC3CC3)ccc2Cl)ccc1=O [Compound 212]	H (H shows more than 50% of control values)	L (L shows 50% or less of control values)	L (L shows 50% or less of control values)
COCOc1ccc(Cl)c(-c2ccc(=O)n(CC(F)F)c2-c2c(F)cccc2F)c1 [Compound 213]	H (H shows more than 50% of control values)	L (L shows 50% or less of control values)	H (H shows more than 50% of control values)
CCOc1ccc(Cl)c(-c2ccc(=O)n(CC(F)F)c2-c2c(F)cccc2F)c1 [Compound 214]	H (H shows more than 50% of control values)	L (L shows 50% or less of control values)	H (H shows more than 50% of control values)
CCn1c(-c2c(F)cncc2F)c(-c2cc(OC)cc(OC)c2)ccc1=O [Compound 215]	H (H shows more than 50% of control values)	L (L shows 50% or less of control values)	H (H shows more than 50% of control values)
CCn1c(-c2c(F)cncc2F)c(-c2cc(OC)cc(OC)c2Br)ccc1=O [Compound 216]	H (H shows more than 50% of control values)	H (H shows more than 50% of control values)	H (H shows more than 50% of control values)
